According to the supplement of paper PMC11417369:
± gives the standard deviation of the averaged measurements. This is one part of the list.

The sequences below were run on PfAP2-LT AP2 domain (GST-tagged) (assay: gcPBM binding intensity (ln(normalized median fluorescence intensity)); higher = stronger DNA binding).
How it was run: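 Binding intensity is defined as the maximum Masliner-normalised natural-log median intensity across replicate spots for either probe orientation. It was measured on an Agilent 4 × 180k array of primer-extended double-stranded 36-bp intergenic genomic probes and negative controls, to which GST-tagged P. falciparum DNA-binding domains made in E. coli were applied for 1 h in 1× PBS with 1% milk, 0.2 mg/ml BSA, 0.5% salmon testes DNA and 0.03% Triton X-100. Detection was by Alexa488 anti-GST antibody and scanning at 488 nm.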

Sequence	gcPBM binding intensity (ln)
AATGAACAGACGAGCACACACACACCCATATATATA [CACACA_site1018]	10.1 ± 0.16
TATTATATGAATAATTGTACGAAATTTAAAAGACAA [XGTACX_site7558]	8.58 ± 0.44
GGGGAGCTATCTCCTGCACACACAATTTTTTTTTTT [CACACA_site8703]	9.1 ± 0.4
CACAAATATATACATACACACATATATACGCATATA [CACACA_site395]	9.31 ± 0.38
TTATAAAGAAAAAATTGCTTTAAAAGAAAGATTACA [CACACA_negctrl_site960]	8.14 ± 0.57
AAAAACAAAATTTGGAGTACAGTTATAATATTATTA [XGTACX_site5245]	8.62 ± 0.43
ATATATATATGAATCACACACAAAAAATATAGAGAT [CACACA_site3913]	9.51 ± 0.41
AATGAAAAGAAATAATAAATAAATGATGACCAGCTG [GTGCAC_negctrl_site398]	8.84 ± 0.39
TGATTATCCTTCAGGAGTACATATAATATAATATAT [XGTACX_site1479]	8.8 ± 0.4
TATAAACCGACGAAAACACACATATGTAAATATATA [CACACA_site491]	9.22 ± 0.47
TTTTATGTTTATGTGGTGCATGTTTTGAAGAAAATA [GTGCAC_site9616]	8.58 ± 0.3
AAACCTATGTATATTATACACACTCCAAACTATTAT [CACACA_site8536]	8.96 ± 0.34
ATTACCATATTTTGTACACACATCTTTATCTCAATA [CACACA_site3217]	9.28 ± 0.49
TAAAAATTAAAGTGTACACATATATATATATATATA [CACACA_site4781]	9.695 ± 0.035
TAAAATAATATATGGTGTACACAAAAGTATAAATAA [XGTACX_site4991]	9.05 ± 0.56
TATATATATATATTATGTACTCATTTATTATCTTTT [XGTACX_site8051]	9.04 ± 0.43
ATATAAAAAAAATTTAGTACATATATATATATATAT [XGTACX_site8635]	9.33 ± 0.042
AAAAAAATAATTAACACACACATGTATATCTATATA [CACACA_site3139]	9.09 ± 0.37
CGGGGGTAGTTTTATGCACACGTTTATTAATGCTTC [CACACA_site5717]	9.38 ± 0.27
TGAAAAACTATCAGAGTGCATATATAGCTCGATACA	8.89 ± 0.45
ACCAATAATATACATACACACATAAATGTTTATATA [CACACA_site4328]	9.06 ± 0.47
ACATGAATATATACACGTACATATATACATATATAT [XGTACX_site5872]	9.05 ± 0.43

Sequence	gcPBM binding intensity (ln)
TTATTAAAGGAAAAATGTACATATAAATGAATATGT [XGTACX_site23]	8.62 ± 0.5
AAAAAATGTAAATATAAACAACCAAAGGGGGTATAC [GTGCAC_negctrl_site465]	9.14 ± 0.41
TTAAAGTATAACTGTACATGCGAGTAAAAGAATGAC [TGCATGCA_site899]	9.09 ± 0.4
ATTAAATATATTTTGCGTACACAAAAAAATACGTTC [XGTACX_site3862]	8.78 ± 0.42
ATAATATTTTATGGTTGTACTTTTAGTTCTTTTTTT [XGTACX_site5756]	8.82 ± 0.48
TACGTGAAGTTATATACACACATAAATATGTCTGTA [CACACA_site7463]	8.93 ± 0.34
GAAAAAAAACACATTGTGCACTTTTCCTTAAGTATA [GTGCAC_site9475]	8.66 ± 0.45
TTTTTTTCGTATATTACACACTATATATAGAAATTA [CACACA_site298]	8.61 ± 0.38
GGAGAAAAAAAAAAAAAACACACGGTACATTCAAAG [CACACA_site1503]	8.97 ± 0.54
AAAAAAAAAAAGCACACACACATATGCGTATATATA [CACACA_site954]	9.51 ± 0.28
AAATTATCCAAAAATTGTACTTAAAACAACATAAAA [XGTACX_site6238]	8.63 ± 0.51
TTTCTCTTATTCCAATCTATAATAAGTATCAATATT [CACACA_negctrl_site179]	8.57 ± 0.51
ACCATTTGTAGGTAAACACACATTATTCTTAATATC [CACACA_site5453]	8.87 ± 0.42
ATATATTCATTTTTATGTACGTAAATTGTAAATTGG [XGTACX_site8242]	8.77 ± 0.34
TGCATTATTTTATGAAGTACATATGAACAAAAAATT [XGTACX_site2185]	8.65 ± 0.36
AAAATAATAATAAAAAGTACATGTGTATATAATAAA [XGTACX_site754]	9.02 ± 0.37
TATGTTTTTCGGTATGCATGCATATGCTTAATAATA [TGCATGCA_site184]	8.9 ± 0.33
AATATTAAACAAATGAAAAAAAAATATATATTATAT [CACACA_negctrl_site742]	8.54 ± 0.4
AATATATATATGATTATATATATATATATATATATA [GTGCAC_negctrl_site290]	9.21 ± 0.13
AAAATAACACAAATGGGTACATATTATATTAAATAA [XGTACX_site7027]	8.85 ± 0.45
TTTAATTAAAATATATGTACATATATATATATATAT [XGTACX_site4517]	9.48 ± 0.028
TAATATTTTATTTTTGTTGTGGATCCAAAAAAAAAA [CACACA_negctrl_site846]	8.21 ± 0.43

Sequence	gcPBM binding intensity (ln)
CTATATATTTAAAAAAGTACAAATATAAAAATATAT [XGTACX_site676]	8.54 ± 0.39
AAAAAAAAAAAAAACACACACATATAACATATTTAA [CACACA_site6745]	9.3 ± 0.48
TGTTTACACTTTTTTTGTACACATAATTTTATTTGA [XGTACX_site3760]	8.78 ± 0.45
TATTCTAGTCTGCTTACACACATATTTATATTTATA [CACACA_site7432]	9.15 ± 0.38
ATTTTTTTTTTTTTTTTTTTTTTTTTTTTTTTATGC [CACACA_negctrl_site1018]	8.51 ± 0.51
TTTTTTTTTTTTGTAGTGCAAATTAAAAATATATGT	8.35 ± 0.4
ATTTTTTTTAAACGAAGTACAATTTGTGCATTGGAA [XGTACX_site8109]	8.45 ± 0.39
TATATATATATATATGTATGCATGTCCTTTTTTATT [TGCATGCA_site344]	9.88 ± 0.085
AATATATGGTTTCATGATATAAAATTCAATTTAATG [GTGCAC_negctrl_site610]	8.41 ± 0.42
TGTTTATCATATTTGTGTCCTCATTTTTTAGTATCA [XGTACX_site947]	8.9 ± 0.47
ACAAAAAAAAAGGAAACACACAAAAAAAAAAAATAA [CACACA_site3523]	8.89 ± 0.6
ACTATATTTCTATAATGTACAAAAATAAATCATATG [XGTACX_site3337]	8.64 ± 0.39
ACCTATAAAAAATAATGTACAGGAAGAAATATAAGG [XGTACX_site5822]	8.95 ± 0.46
TAATTTACACCTACGTGTACACACAAAAATATGTTT [XGTACX_site1868]	9.1 ± 0.38
TTTATTATCAAGATTGCACACCCTTATGAACTTTTT [CACACA_site3166]	9.02 ± 0.5
AAAAAAAAAAAAAATACACACAAACACAAATTAAAT [CACACA_site5982]	9.32 ± 0.49
GTAATATTATAATATACACACATAGAATATATATAT [CACACA_site413]	9.06 ± 0.39
AAGATCATATATTCGTGGGTATAAAAAGTTATAATA [TGCATGCA_negctrl_site439]	8.54 ± 0.48
AGAAATATGTTGAAGCATTTATAATGTAGATATAAG [GTGCAC_negctrl_site640]	8.71 ± 0.53
TATCATTTTGAAGTATGTACTTATTTTATTAAAATA [XGTACX_site7784]	8.46 ± 0.4
ATTATATTAAAATATTCACACACTAACGTAAATCAT [CACACA_site8887]	8.9 ± 0.39
TAAATACATAAATACACACACATATATATATATATA [CACACA_site5549]	10.1 ± 0.43

Sequence	gcPBM binding intensity (ln)
TGTATAAGGTTTTTACGTTTTGAAGGATGTATTGTT [CACACA_negctrl_site1245]	8.82 ± 0.41
TAGGTCATATTTTTTGCACACAAAAAAAAATATAAA [CACACA_site3380]	8.85 ± 0.42
TTTTTCCAATCAGATGCATGTTACTATATTTGGTTC [TGCATGCA_site52]	8.89 ± 0.39
CACCTCAATATTCACATACACACAATATCATCGAAG [CACACA_site1675]	9.14 ± 0.34
AAGGAAAAAACAAATACACACAAAAACGCATTATAA [CACACA_site3466]	9.24 ± 0.4
ATGAACTTATTTTAGTGTACTAAAAAATATGACTTC [XGTACX_site470]	8.5 ± 0.55
TTTTTTTTTTTTGTAACATGCAAACAACAATATGGG [TGCATGCA_site695]	8.65 ± 0.42
GGGAGGATATTACACAGTACCCAGGAAATCTACGGA [XGTACX_site4874]	8.81 ± 0.5
TATGTTCCGAAGGTTGTACACACATAGAAATATACA [CACACA_site9285]	8.98 ± 0.42
ATGTAATTGTATACATGTACGCAAACACAAAAGCAT [XGTACX_site6771]	9.3 ± 0.47
TTTTGTTCATACAAATTGGAACAAGACAAAAATATA [XGTACX_negctrl_site327]	8.41 ± 0.34
GTAAGTATATATAATAGTACATATATATTAATATAT [XGTACX_site4314]	8.91 ± 0.41
TACATAATTTTAATCACACACAAACAAACACATACA [CACACA_site194]	9.42 ± 0.2
CATATTAATACAGAATGTACGGATAACAAACTGTTT [XGTACX_site7935]	8.86 ± 0.36
TTTTTTTTTTTGGTTACACACATTTGTATATTCTCA [CACACA_site134]	9.11 ± 0.4
GGTCATCATCGGTATTGTACAAAAATGTGAAAATTA [XGTACX_site639]	8.73 ± 0.48
ATAATTATATGATGAGTGCACAATAAAAATATCGTT [GTGCAC_site9920]	9.04 ± 0.41
TTTTATTTAGGAGGTGCATGTAATACGGAACATAAT [TGCATGCA_site827]	8.73 ± 0.3
CCATAACTCCTATGCACACATAAATATTACAGAGAT [CACACA_site5984]	9.09 ± 0.42
TTTGATTTTAATGTGTGTACACATTTATTTATATAA [XGTACX_site4806]	9.13 ± 0.51
GATTTATATTTTAAAAGTACAAGTTAAAATAAAAGT [XGTACX_site7059]	8.61 ± 0.5
ATATAAGTATAATTATGTACTTATACTTATATAAAT [XGTACX_site5585]	8.62 ± 0.41
